Source: PMC4336329 (PLoS ONE, 2015)
The whole screen tested about 310,000 compounds, of which about 14,000 (4.5%) showed an effect of 50% or more. The effect is printed as a negative number. The list shows a part of the results.

These molecules were tested against human ether-à-go-go-related gene (hERG) potassium channel (human, UniProt Q12809) (assay: primary screen, population patch clamp on CHO cells stably expressing hERG).
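Note: peak tail current of the secondary pulse compared with the same well before compound.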

human ether-à-go-go-related gene (hERG) potassium channel, sequence (Q12809 whole entry, looked up): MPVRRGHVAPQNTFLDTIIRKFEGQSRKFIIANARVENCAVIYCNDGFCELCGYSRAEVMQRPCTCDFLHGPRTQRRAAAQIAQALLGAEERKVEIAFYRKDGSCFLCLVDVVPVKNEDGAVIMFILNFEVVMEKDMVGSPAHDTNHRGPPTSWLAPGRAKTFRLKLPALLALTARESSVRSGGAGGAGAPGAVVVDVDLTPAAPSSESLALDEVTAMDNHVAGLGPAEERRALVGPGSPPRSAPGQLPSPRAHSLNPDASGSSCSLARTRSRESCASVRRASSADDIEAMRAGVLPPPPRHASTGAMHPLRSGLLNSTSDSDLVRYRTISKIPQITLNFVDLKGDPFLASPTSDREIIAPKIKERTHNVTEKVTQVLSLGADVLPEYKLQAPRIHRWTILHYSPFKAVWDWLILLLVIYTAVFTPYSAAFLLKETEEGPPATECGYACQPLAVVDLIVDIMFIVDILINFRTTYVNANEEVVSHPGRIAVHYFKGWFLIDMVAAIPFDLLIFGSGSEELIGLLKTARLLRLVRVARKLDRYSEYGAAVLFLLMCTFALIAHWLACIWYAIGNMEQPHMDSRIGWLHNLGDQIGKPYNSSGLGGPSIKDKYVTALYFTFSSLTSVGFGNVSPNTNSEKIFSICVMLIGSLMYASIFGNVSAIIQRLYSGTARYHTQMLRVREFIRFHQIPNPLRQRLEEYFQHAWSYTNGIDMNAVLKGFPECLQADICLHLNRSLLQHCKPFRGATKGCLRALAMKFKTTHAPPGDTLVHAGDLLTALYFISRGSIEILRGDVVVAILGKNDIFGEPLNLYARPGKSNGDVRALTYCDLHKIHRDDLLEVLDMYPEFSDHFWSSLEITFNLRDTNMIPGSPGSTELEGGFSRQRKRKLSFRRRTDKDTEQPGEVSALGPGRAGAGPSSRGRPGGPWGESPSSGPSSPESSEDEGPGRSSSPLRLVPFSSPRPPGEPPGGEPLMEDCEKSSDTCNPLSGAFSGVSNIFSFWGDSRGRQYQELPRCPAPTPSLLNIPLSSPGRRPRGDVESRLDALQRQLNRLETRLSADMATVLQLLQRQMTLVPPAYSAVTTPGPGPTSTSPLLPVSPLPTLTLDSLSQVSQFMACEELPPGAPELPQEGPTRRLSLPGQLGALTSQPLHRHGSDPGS

| SMILES | hERG current change (%, negative = inhibition) at 10uM [%] |
| --- | --- |
| Cc1cc(=O)n2[nH]c(-c3cccc(Cl)c3)cc2n1 | -3.21 |
| COc1ccc(C2CC(c3cccs3)=NN2C(=O)CSC2=NN3CCCC(=O)N=C3S2)cc1 (centres unmarked) | -24.5 |
| c1ccc(CCC2Cc3ccccc3N2)cc1 (centres unmarked) | -0.839 |
| COc1cccc(SCC(=O)N2CCN(c3ccccc3)CC2)c1 | -1.23 |
| COc1ccc(NC(=O)C2CCCO2)c(OC)c1 (centres unmarked) | 15.3 |
| CCC(C)[C@H](NC(=O)C1CCN(C(=O)[C@H](Cc2ccccc2)NS(=O)(=O)c2ccc(C)cc2)CC1)C(=O)O (some centres unmarked) | 17.6 |
| Cn1c(CSc2nc3ccccc3s2)nnc1SCC(=O)NCc1ccccn1 | 3.84 |
| COCCOC(=O)C1=C(C)NC(=O)NC1c1c(OC)ncnc1OC (centres unmarked) | 15.1 |
| CCCn1c(=O)n(CC(=O)NCC2CCCO2)c(=O)c2c3c(sc21)COC(C)(C)C3 (centres unmarked) | 12.2 |
| CS(=O)(=O)N(CC(=O)N1CCCCCC1)c1ccc2c(c1)OCCO2 | -4.29 |
| Cn1c(=O)c(C(=O)Nc2ccccn2)c(O)c2ccccc21 | 5.7 |
| Cc1ccc(NC(=O)CCOc2ccccc2)cc1S(=O)(=O)Nc1ccccc1Cl | 4.04 |
| O=C(O)c1cc(-c2ccc(Cl)s2)nc2ccccc12 | 58.7 |
| Cc1ccc(NC2=NC(c3ccc(C)cc3)n3c(nc(C)cc3=O)N2)cc1 (centres unmarked) | 28.9 |
| COc1ccc(OCC(=O)NCCc2ccc(S(N)(=O)=O)cc2)cc1 | -10.3 |
| Cn1c(N)c(C(=O)COC(=O)/C=C/c2ccc(Cl)cc2)c(=O)n(C)c1=O | -43.3 |
| CCc1nc2sc(C)c(C)c2c(=O)n1CCO | 11.1 |
| COc1ccc(OC)c(S(=O)(=O)N/N=C\c2c[nH]c3ccccc23)c1 | -2.08 |
| COCc1nnc(NC(=O)c2ccccc2[N+](=O)[O-])s1 | 12.3 |

| SMILES | hERG current change (%, negative = inhibition) at 10uM [%] |
| --- | --- |
| O=C(COc1ccc(C(=O)c2ccccc2)cc1)Nc1cccnc1 | 129 |
| COc1ccc(-c2cnnn2-c2ccc(NC(=O)c3ccc(S(=O)(=O)N4CCCCC4)cc3)cc2)cc1OC | 6.76 |
| C/C=C/Cn1c(N2CCCCCC2)nc2c1c(=O)[nH]c(=O)n2C | -5.14 |
| Cn1nnnc1SCC(=O)Nc1cc(C(C)(C)C)nn1-c1ccccc1 | -18.1 |
| CCN(CC)C(=O)/C(=C\c1cccc([N+](=O)[O-])c1)NC(=O)c1ccco1 | -24 |
| CSc1nc2nccc(-c3ccc4c(c3)OCO4)n2n1 | -27.2 |
| COC(=O)c1cc(C#N)c(N2CCOCC2)nc1C | -6.93 |
| CCOc1ccccc1C(=O)Nc1cc(C(=O)NCCc2ccccc2)ccc1Cl | -15.8 |
| CC(C)(C)CN1C(N)=NC[C@@H]1Cc1ccccc1 | -3.17 |
| C=CCn1c(SCC(=O)Nc2nnc(CC)s2)nnc1-c1cccnc1 | -20.9 |
| CC(=O)N1CCc2c(sc(NC(=O)CCS(=O)(=O)c3ccccc3)c2C#N)C1 | 12.8 |
| CC(=O)c1sc(-c2ccc(F)cc2F)nc1C | 11.2 |
| NS(=O)(=O)c1ccc(NC(=O)COC(=O)/C=C/c2ccc([N+](=O)[O-])cc2)cc1 | 11.7 |
| CC(=O)Nc1ccccc1C(=O)C(=O)Nc1ccc(C)c(F)c1 | 24.3 |
| COCCn1c(C)cc(C(=O)COC(=O)CCN2C(=O)c3ccccc3C2=O)c1C | 5.58 |
| O=C1Nc2ccc(S(=O)(=O)NCC3CCCO3)c3cccc1c23 (centres unmarked) | -3.92 |
| Cc1ccc(C(=O)OCC(=O)NC(C)C)cc1S(=O)(=O)N1CCOCC1 | 12.1 |
| CCOC(=O)CCCNC(=O)CCNC(=O)c1ccc(OCC)cc1 | 4.59 |
| O=C(NCc1ccccc1Cl)C1CCCN1S(=O)(=O)c1ccc(F)cc1 (centres unmarked) | 6.59 |

| SMILES | hERG current change (%, negative = inhibition) at 10uM [%] |
| --- | --- |
| CCCCN1CCN=C1N(C)C | 12 |
| CCC(C)(C)n1nnnc1CN1CCN(c2nc3ccc(C)cc3cc2C#N)CC1 | -6.63 |
| CCOC(=O)c1c(Nc2ccccc2)sc(/C=C2\C=Nc3ccccc32)c1O | 0.585 |
| COc1cccc(C(=O)Nc2cc([N+](=O)[O-])ccc2N2CCN(C)CC2)c1 | -71.7 |
| COc1ccc(S(=O)(=O)Nc2ccc(S(=O)(=O)Nc3cc(C)nc(C)n3)cc2)cc1OC | 23.9 |
| COc1ccc(C)cc1NC(=O)C(OC(=O)CNC(=O)c1ccc(Oc2ccccc2)cc1)c1ccccc1 (centres unmarked) | 10.1 |
| Cc1[nH]c2ccccc2c1C(=O)CSC(=S)N1CCN(C)CC1 | 4.09 |
| COCCn1c(=NC(=O)c2cc(-c3cccs3)nc3ccccc23)sc2cc(S(N)(=O)=O)ccc21 | 5.73 |
| O=C(N/N=C/c1ccsc1)c1ccc2c(c1)OCO2 | 2.91 |
| CCc1ccc(OCCn2ccnc2)cc1 | 5.34 |
| COC(=O)C1=C(O)/C(=C/c2ccc(OCC(=O)Nc3ccccc3)cc2)N=C1C | 8.91 |
| Cc1ccccc1NC(=O)c1cccc(S(=O)(=O)N2CCCCC2)c1 | -29.3 |
| O=C(/C=C/c1cccc([N+](=O)[O-])c1)N1CCN(S(=O)(=O)c2cccs2)CC1 | -62.2 |
| CCOC(=O)c1cccc(NC(=O)c2ccc3c(c2)OCO3)c1 | -22.7 |
| CCCCCCCC[n+]1cccc(C(=O)N2c3c(nc(N)[nH]c3=O)NC(C)C2C)c1.[I-] (centres unmarked) | 1.98 |
| N/C(=N\N=C\c1cccc(O)c1)c1nonc1N | 11.8 |
| N#CCc1ccc(NC(=O)Cn2c(=O)oc3ccccc32)cc1 | 13 |
| COc1ccc(-c2ccc(CCC(=O)O)n2Cc2ccco2)cc1 | -4.41 |
